Data as given in publication PMC4336329 (PLoS ONE, 2015).
The whole screen tested about 310,000 compounds, of which about 14,000 (4.5%) showed an effect of 50% or more. Effects have a minus sign here. Some of the results follow.

Molecular target: human ether-à-go-go-related gene (hERG) potassium channel (human, UniProt Q12809)
Test: primary screen, population patch clamp on CHO cells stably expressing hERG
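Note: peak tail current of the secondary pulse compared with the same well before compound.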

Sequence of human ether-à-go-go-related gene (hERG) potassium channel (Q12809 whole entry, looked up): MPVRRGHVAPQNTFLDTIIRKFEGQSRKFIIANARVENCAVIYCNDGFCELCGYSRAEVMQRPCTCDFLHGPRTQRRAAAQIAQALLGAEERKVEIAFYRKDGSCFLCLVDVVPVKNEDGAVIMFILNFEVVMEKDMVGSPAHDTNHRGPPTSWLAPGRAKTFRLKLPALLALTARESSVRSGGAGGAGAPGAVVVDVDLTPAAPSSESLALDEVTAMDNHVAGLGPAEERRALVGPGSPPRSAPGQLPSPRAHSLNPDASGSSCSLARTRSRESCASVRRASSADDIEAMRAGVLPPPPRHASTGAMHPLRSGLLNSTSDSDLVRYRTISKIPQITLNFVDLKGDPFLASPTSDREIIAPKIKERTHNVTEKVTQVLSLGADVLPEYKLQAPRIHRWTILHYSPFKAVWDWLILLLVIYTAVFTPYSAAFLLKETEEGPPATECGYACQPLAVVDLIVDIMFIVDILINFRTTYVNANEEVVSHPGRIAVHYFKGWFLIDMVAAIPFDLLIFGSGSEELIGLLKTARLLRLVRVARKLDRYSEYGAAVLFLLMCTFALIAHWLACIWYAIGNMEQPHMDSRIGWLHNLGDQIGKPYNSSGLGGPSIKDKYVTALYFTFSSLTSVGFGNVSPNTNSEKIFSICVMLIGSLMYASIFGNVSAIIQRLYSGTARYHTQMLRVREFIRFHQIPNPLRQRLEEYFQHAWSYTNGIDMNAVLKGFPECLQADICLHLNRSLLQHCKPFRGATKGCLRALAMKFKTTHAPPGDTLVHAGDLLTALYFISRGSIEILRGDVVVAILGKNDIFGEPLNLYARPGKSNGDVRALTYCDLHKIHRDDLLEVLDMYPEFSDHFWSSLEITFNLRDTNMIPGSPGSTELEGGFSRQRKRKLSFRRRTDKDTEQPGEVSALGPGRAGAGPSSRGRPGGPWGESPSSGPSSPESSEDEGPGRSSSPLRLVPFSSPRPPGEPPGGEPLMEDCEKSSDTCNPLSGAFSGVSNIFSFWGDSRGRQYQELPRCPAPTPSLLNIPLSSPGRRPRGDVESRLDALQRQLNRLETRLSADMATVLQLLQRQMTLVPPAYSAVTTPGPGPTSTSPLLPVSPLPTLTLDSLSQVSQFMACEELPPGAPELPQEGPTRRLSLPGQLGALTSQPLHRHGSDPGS

Compared with `O=C(CN1C(=O)COc2ccccc21)c1cccc(Cl)c1`, `N#C[C@H]1C2OC2c2ccccc2N1C(=O)c1ccccc1` (stereo partly drawn) is higher in “hERG current change (%, negative = inhibition) at 10uM” value: -14.4% for the first, -0.165% for the second.

First: CCOc1cc(/C=N/NC(=O)c2nn(C)cc2Br)ccc1OCc1ccccc1
Second: CCn1c(=O)c(C(=O)NCCc2ccccc2)c(O)c2ccccc21
The “hERG current change (%, negative = inhibition) at 10uM” value of the first is lower: 5.59% for the first, 19.7% for the second.

First: O=C1NC(=O)N(c2ccc3c(c2)OCO3)C(=O)/C1=C/c1ccsc1
Second: CCOc1ccc(NC(=O)CSc2nccn(-c3ccc4c(c3)OCCO4)c2=O)cc1
The “hERG current change (%, negative = inhibition) at 10uM” value of the first is higher: -2.91% for the first, -12.4% for the second.

First: O=C(O)c1[nH]c2ccccc2c1C=NCc1ccccc1Cl
Second: O=C1c2ccccc2NC(c2cccc(O)c2)N1NS(=O)(=O)c1ccccc1 (stereo not drawn)
The “hERG current change (%, negative = inhibition) at 10uM” value of the first is higher: 19.8% for the first, 0.888% for the second.

First: CC(C)(C)OC(=O)[C@H](Cc1ccccc1)NC(=O)c1nc[nH]c1C(=O)N1CCc2ccccc2C1
Second: Cc1ccc(NC(=O)C(OC(=O)c2cc(C)oc2C)c2ccccc2)cc1 (stereo not drawn)
The “hERG current change (%, negative = inhibition) at 10uM” value of the first is lower: -19.7% for the first, 6.95% for the second.

Going from `COc1ccc(-c2cn(Cc3ccc(C(N)=O)cc3)c(-c3ccc(Cl)nc3)n2)cc1` to `CCOc1ccc(CN2C(=O)c3ccccc3Sc3ccc(C(=O)NCCCN4CCOCC4)cc32)cc1`, the “hERG current change (%, negative = inhibition) at 10uM” value rises from -71.4% to -22.5%.

First: C/C(=N/O)c1ccc2c(c1)OCCOCCOc1cc(/C(C)=N/O)ccc1OCCOCCO2
Second: COc1ccc(S(=O)(=O)N2CCOCC2)cc1NC(=O)c1ccc2c(c1)OCCO2
The “hERG current change (%, negative = inhibition) at 10uM” value of the first is lower: -77.3% for the first, 0.85% for the second.

Going from `Cc1ccc2ccc(S(=O)(=O)NCc3ccccn3)cc2c1` to `Cc1ccc(S(=O)(=O)NC(=O)NCc2ccc(F)cc2)cc1`, the “hERG current change (%, negative = inhibition) at 10uM” value rises from 8.22% to 13%.

Going from `CCOc1ccc(S(=O)(=O)NC(C)C(=O)NCc2ccc3c(c2)OCO3)cc1` (stereo not drawn) to `CCOc1ccc(NC(=O)CCNS(=O)(=O)c2cccc3nsnc23)cc1`, the “hERG current change (%, negative = inhibition) at 10uM” value falls from 2.83% to -4.4%.

Going from `CNC(=O)c1cc(Nc2nnc(C)c3ccccc23)ccc1OC` to `COc1cccc(/C=C2\Oc3ccc(O)cc3C2=O)c1O`, the “hERG current change (%, negative = inhibition) at 10uM” value rises from 1.5% to 14.1%.

Going from `CC(=O)NC(CC(=O)O)c1ccc([N+](=O)[O-])cc1` (stereo not drawn) to `CC(=O)C1=C(O)C(=O)N(CCC(=O)O)C1c1ccccc1[N+](=O)[O-]` (stereo not drawn), the “hERG current change (%, negative = inhibition) at 10uM” value rises from 10.6% to 11.5%.

First: COC(=O)c1ccc(OC(=O)c2ccco2)cc1
Second: CC(=O)c1ccc(OCCCC(=O)NNC(=O)c2ccccn2)cc1
The “hERG current change (%, negative = inhibition) at 10uM” value of the first is higher: -5.08% for the first, -6.17% for the second.

First: Cc1ccc(-c2cc(C(F)(F)F)c(C#N)c(SCC(=O)O)n2)cc1
Second: CCn1c(SCC(=O)Nc2c(C#N)cnn2-c2ccccc2)nnc1-c1cccs1
The “hERG current change (%, negative = inhibition) at 10uM” value of the first is higher: 20.9% for the first, -13.6% for the second.

First: CN(C)C(CNc1ncnc2sc3c(c12)CCCCC3)c1ccco1 (stereo not drawn)
Second: COC(=O)c1c(/N=C/N(C)C)sc2c1CCN(c1ncc(C(F)(F)F)cc1Cl)C2
The “hERG current change (%, negative = inhibition) at 10uM” value of the first is lower: -35.4% for the first, -14.3% for the second.

First: COc1ccc2c(C(=O)CN3CCSCC3)c[nH]c2c1
Second: COC(=O)c1nn(-c2ccc(OC)cc2)c(=O)cc1NN
The “hERG current change (%, negative = inhibition) at 10uM” value of the first is lower: -4.01% for the first, 26.7% for the second.

Compared with `S=C(NCc1cccnc1)NCc1cccnc1`, `CC1C/C(=N\NC(=O)c2cccnc2)CC(C)(C)C1` (stereo not drawn) is lower in “hERG current change (%, negative = inhibition) at 10uM” value: 14.4% for the first, 9.65% for the second.

First: Cc1ccccc1N1C(=O)CC(=O)NC1=O
Second: CCCCNC(=O)CCCN1C(=O)c2cccnc2Sc2ccccc21
The “hERG current change (%, negative = inhibition) at 10uM” value of the first is lower: 5.21% for the first, 9.61% for the second.

First: CCCCc1c(O)nc2n(c1=O)CCS2
Second: Cc1ccc(CN2CCSc3ccc(C(=O)NCCCN4CCOCC4)cc32)cc1
The “hERG current change (%, negative = inhibition) at 10uM” value of the first is higher: 11.8% for the first, -37.8% for the second.

First: CN1CCn2c1nc(N1CCCCC1)nc2=O
Second: Cc1onc(-c2ccccc2Cl)c1C(=O)Nc1ccc(S(=O)(=O)N2CCCC2)cc1
The “hERG current change (%, negative = inhibition) at 10uM” value of the first is lower: -11.9% for the first, 19.3% for the second.

Going from `[S-]c1nnc(-c2ccc(Br)cc2)n1-c1ccccc1.[Zn+2]` to `CC(Sc1ncnc2sccc12)C(=O)Nc1ccc(C(N)=O)cc1` (stereo not drawn), the “hERG current change (%, negative = inhibition) at 10uM” value rises from 18.9% to 25.8%.

Going from `CCCCOc1cc(C(=O)OCCN(CC)CC)ccc1N` to `CCOc1cc(CNCCO)cc(Br)c1OCc1ccc(Cl)cc1Cl.Cl`, the “hERG current change (%, negative = inhibition) at 10uM” value rises from -60.6% to 2.86%.

First: CCOC(=O)c1cn(CC(=O)Nc2cccc(Cl)c2C)nn1
Second: COCC(=O)Nc1ccc2c(c1)OCO2
The “hERG current change (%, negative = inhibition) at 10uM” value of the first is higher: 19.8% for the first, 18.3% for the second.

In the case of `O=C(Nc1ccccc1N1CCOCC1)c1ccc([N+](=O)[O-])o1`, the “hERG current change (%, negative = inhibition) at 10uM” value was -17.9%.
